Laboratory results reported in PubChem BioAssay AID485341 (National Center for Advancing Translational Sciences (NCATS), 2010).
In all, about 330,000 compounds went through this assay and about 1,700 (0.52%) were called active. The shares of active, inactive and inconclusive entries below differ from those in the screen. The call rests on the fitted dose curve; in most records, active means well fitted inhibition curve with a large enough effect; inconclusive means small, poorly fitted or top-dose-only effect; inactive means no such curve, though single readings can be large or run the other way. A potency beside an inconclusive call is a rough fit, not a confirmed value.

Target: Beta-lactamase (Escherichia coli (strain K12)) (UniProt P00811)
Chain of UniProt P00811 (P00811 whole entry, looked up): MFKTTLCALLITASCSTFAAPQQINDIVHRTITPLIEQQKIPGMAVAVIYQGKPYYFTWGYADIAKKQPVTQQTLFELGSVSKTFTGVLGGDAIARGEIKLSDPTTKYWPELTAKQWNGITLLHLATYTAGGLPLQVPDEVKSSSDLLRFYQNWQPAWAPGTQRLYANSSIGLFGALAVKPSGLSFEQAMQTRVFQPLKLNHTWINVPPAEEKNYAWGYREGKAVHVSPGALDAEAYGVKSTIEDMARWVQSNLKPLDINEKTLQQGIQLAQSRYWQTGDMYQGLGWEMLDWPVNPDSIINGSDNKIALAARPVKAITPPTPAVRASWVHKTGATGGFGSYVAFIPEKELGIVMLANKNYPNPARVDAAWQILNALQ
Experiment: qHTS Inhibitors of AmpC Beta-Lactamase (assay without detergent); further: nearly all actives have a fitted effect of over 20% in size;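 on activity change, negative = inhibition: plate controls were no compound for no effect and no enzyme for full effect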
Conditions: AmpC nitrocefin hydrolysis, absorbance 480 nm, 0.0001% Triton; activity change, negative = inhibition: at 57.1 µM (top of the series) unless noted
Summary of the method: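 20 mM phosphate pH 7.0 + 0.01% (detergent screen) or 0.0001% Triton X-100; 5.3 nM AmpC reagent; cpd preinc 15 min RT; nitrocefin (800 uM stock) to start; A480 q20 s × 4 min; Activity was normalised to no-enzyme and no-compound control wells.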
Potency means the concentration at half of the fitted maximal effect; tags describe the fitted curve by direction and shape.

Row | Compound | Potency | activity change, negative = inhibition
1 | CCc1ccc(C2C(C#N)=C(N)SC(N)=C2C#N)cc1 | active: 8.91 µM | –
2 | Cc1[nH][nH]c(=O)c1C(c1c(C)[nH][nH]c1=O)c1cn(Cc2ccccc2Cl)c2ccccc12 | inconclusive: 28.2 µM [inhibitor, partial curve] | –
3 | N#CCC(=O)Nc1ccc(C(=O)OCC(=O)Nc2ccccc2Sc2ccccc2)cc1 | inconclusive: 7.94 µM [inhibitor, partial curve] | –
4 | COc1ccccc1NC1=C(Cl)C(=O)N(C2CCCCC2)C1=O | active: 14.1 µM | –
5 | O=c1oc2cc(OCc3ccc([N+](=O)[O-])cc3)ccc2c2c1CCCC2 | inconclusive: 6.31 µM [inhibitor, single point] | –
6 | CCCC(c1nnnn1CS(=O)(=O)c1ccc(C)cc1)N1CCN(c2ccc(F)cc2)CC1 (stereo unspecified) | inactive | –
7 | CCOC(=O)c1nn(-c2ccc3c(c2)OCO3)cc1O | inactive | –
8 | CCc1cc2c(=O)c(-c3nc(C)cs3)coc2cc1O | inactive | –
9 | CN(C)/C=C/C(=O)c1ccc(Cl)s1 | inconclusive: 25.1 µM [inhibitor, single point] | –
10 | Cc1ccc(NC(=O)NNC(=O)c2cc3ccccc3cc2O)cc1 | active: 10 µM | –
11 | O=C(CSc1nc2c(cnn2-c2ccc(F)cc2)c(=O)[nH]1)N1CCCCC1 | inconclusive: 2 µM [inhibitor, full curve, poor fit] | –
12 | NC(=S)NNc1c(F)c(F)c(F)c(F)c1F | inactive | –
13 | CC(C)NC(=O)c1ccc2c3n(nc2c1)-c1ccc(Cl)cc1CO3 | inactive | –
14 | CCN(CC)c1ccc(S(=O)(=O)Nc2cc(Cl)ccc2Cl)cc1NC(=S)NC(=O)C1CCCC1 | active: 25.1 µM | –
15 | O=C(Nc1cccc(N=Cc2cc(Cl)cc(Br)c2O)c1)c1ccco1 | inconclusive: 28.2 µM [inhibitor, single point] | –
16 | CC(C)c1nc(SCC(=O)N2c3ccccc3CC2C)c2ccccc2n1 (stereo unspecified) | inconclusive: 5.01 µM [inhibitor, single point] | –
17 | O=C(COC(=O)/C=C/c1cccs1)Nc1nc(-c2cccc(Br)c2)cs1 | active: 6.31 µM | –
18 | Cc1ccc(N2CC(NS(=O)(=O)c3cccs3)CC2=O)cc1 (stereo unspecified) | inconclusive: 39.8 µM [inhibitor, single point] | –
19 | CCOC(=O)CNC=C(C(=O)OCC)C(=O)OCC | inconclusive: 6.31 µM [inhibitor, single point] | –
20 | COc1ccc(-c2cc(C(=O)NCC(c3ccco3)N(C)C)c3ccccc3n2)cc1OC (stereo unspecified) | inconclusive: 35.5 µM [inhibitor, single point] | –
21 | Cc1ccc2c(c1)Oc1ccc(NC(=O)CCCl)cc1C(=O)N2 | active: 20 µM | –
22 | O=C(N/N=C/c1cccs1)c1cccc(S(=O)(=O)Nc2ccc(Cl)cc2)c1 | active: 14.1 µM | –
23 | C/C(=N\NC(=O)c1cccc(Cl)c1)c1cccc(NC(=O)c2ccco2)c1 | inconclusive: 5.62 µM [inhibitor, partial curve, poor fit] | –
24 | COc1ccc(CC(=O)Nc2ccc(-c3cn4cccc(C)c4n3)cc2)cc1OC | inactive | –

Row | Compound | Potency | activity change, negative = inhibition
25 | CCCNC(=O)c1ccc2nc(-c3ccccc3)c(-c3ccccc3)nc2c1 | inconclusive: 0.316 µM [inhibitor, full curve, poor fit] | –
26 | O=C(CS(=O)(=O)c1c[nH]c2ccccc12)NC1CCCCC1 | active: 0.501 µM | –
27 | Cc1ccc(Nc2nc(-c3ccccc3)c(CC(=O)O)s2)cc1 | inconclusive: 15.8 µM [inhibitor, partial curve] | –
28 | O=C(N/N=C/c1cc([N+](=O)[O-])ccc1O)c1ccc(COc2ccc3c(c2)CCC3)o1 | inconclusive: 2 µM [inhibitor, full curve, poor fit] | –
29 | Cc1ccc(Cn2c(C(=O)O)cc3sccc32)cc1 | inactive | –
30 | COc1ccc(CN2C[C@H]3CCCN3c3cc(Br)ccc3S2(=O)=O)cc1 | active: 20 µM | –
31 | CCOC(=O)C1=C(C)NC(=S)NC1c1ccc(C)s1 (stereo unspecified) | inconclusive: 39.8 µM [inhibitor, single point] | –
32 | O=C(NC1CC1)c1cc(-c2ccco2)nc2ccccc12 | inconclusive: 39.8 µM [inhibitor, single point] | –
33 | O=C(Nc1ccccc1C(=O)N/N=C/c1ccncc1)c1ccccc1 | inactive | –
34 | CCC(C)Cn1c(O)cc2nn(-c3nc4ccccc4s3)c(=O)c-2c1C (stereo unspecified) | active: 17.8 µM | –
35 | N#Cc1c(NC(=O)CCn2cnc3ccccc3c2=O)oc(-c2ccccc2)c1-c1ccccc1 | inconclusive: 4.47 µM [inhibitor, single point] | –
36 | COC(=O)CN(c1ccc(OC)cc1OC)S(=O)(=O)c1ccccc1[N+](=O)[O-] | inactive | –
37 | Cc1sc2nc(COC(=O)c3ccc(N4CCCC(C)C4)c([N+](=O)[O-])c3)[nH]c(=O)c2c1C (stereo unspecified) | inconclusive: 4.47 µM [inhibitor, full curve, poor fit] | –
38 | COc1cc(CNCCCN2CCOCC2)cc(Br)c1OCc1ccc(Cl)cc1 | – | inactive: 25.2% [at 2.29 µM]
39 | Cc1cc(NC(=O)CSc2nc(CC(C)(C)C)nc3c2c(=O)n(C)c(=O)n3C)no1 | active: 39.8 µM | –
40 | Cc1ccc(N(C(=O)Nc2ccccc2)C2=NCC(C)S2)cc1 (stereo unspecified) | inconclusive: 5.62 µM [inhibitor, single point] | –
41 | CCN(CC)S(=O)(=O)c1ccc(C)c(NC(=O)CNc2cccc(S(=O)(=O)N3CCOCC3)c2)c1 | inconclusive: 31.6 µM [inhibitor, single point] | –
42 | CC1CCN(S(=O)(=O)c2ccc(C(=O)Nc3ccccc3-c3nc4ccccc4[nH]3)cc2)CC1 | inconclusive: 3.16 µM [inhibitor, full curve] | –
43 | Cc1ccccc1-c1nnc(SCC(=O)N(C)c2c(N)n(Cc3ccccc3)c(=O)[nH]c2=O)n1C | inconclusive: 31.6 µM [inhibitor, single point] | –
44 | Cc1ccc(-c2csc(NC(=O)CSc3ncn(-c4ccccc4)n3)n2)cc1 | inconclusive: 6.31 µM [inhibitor, single point] | –
45 | COc1cc(-c2noc(C)c2C#Cc2ccc(N)cc2)cc(OC)c1OC | inactive | –
46 | O=C(/C=C/c1ccc(O)c(O)c1)O[C@H](Cc1ccc(O)c(O)c1)C(=O)O | inconclusive: 39.8 µM [inhibitor, single point] | –
47 | C=CCNC(=S)Nc1ccccc1 | inconclusive: 6.31 µM [inhibitor, single point] | –
48 | COc1ccc(/C=N/NC(=O)c2cccc(S(=O)(=O)N3CCCC3)c2)cc1O | inactive | –

Row | Compound | Potency | activity change, negative = inhibition
49 | O=c1c(Cc2ccccc2)c(O)c2cccc3c4c(n1c23)CCCC4 | active: 7.94 µM | –
50 | O=C1CSC(=S)N1/N=C/c1cc(Br)ccc1O | inactive | –
51 | COc1ccc(-n2c(Cc3cccn3C)nnc2SCC(=O)Nc2ccccc2)cc1 | inconclusive: 10 µM [inhibitor, full curve, poor fit] | –
52 | O=C(NC(NC(=S)Nc1ccc(Cl)cc1)C(Cl)(Cl)Cl)c1ccco1 (stereo unspecified) | inconclusive: 39.8 µM [inhibitor, single point] | –
53 | N#Cc1ccccc1Sc1ccccc1C(=O)OCC(=O)NC1CCCCC1 | active: 35.5 µM | –
54 | CCn1cc(C2Nc3ccccc3C(=O)N2O)c(C)n1 (stereo unspecified) | inconclusive: 1.26 µM [inhibitor, partial curve, poor fit] | –
55 | O=S1(=O)CC(NCc2ccccc2)C(Nc2ccccc2)C1 (stereo unspecified) | inconclusive: 8.91 µM [inhibitor, single point] | –
56 | COC(=O)CC(NS(=O)(=O)c1cccs1)c1cccc2ccccc12 (stereo unspecified) | inconclusive: 3.98 µM [inhibitor, single point] | –
57 | Cc1ccc2cc(CN(CC(C)C)C(=O)C3CCCO3)c(=O)[nH]c2c1 (stereo unspecified) | inconclusive: 5.62 µM [inhibitor, single point] | –
58 | CCN(CC)C(=O)CSc1nc2ccccc2c(=O)n1-c1ccccc1OC | inconclusive: 6.31 µM [inhibitor, single point] | –
59 | Cc1ccc(C(=O)Nc2cccc(NC(=O)c3cccs3)c2)c(C)c1 | inconclusive: 15.8 µM [inhibitor, partial curve] | –
60 | Cc1ccc(CNC(=O)c2cc3c(s2)CS(=O)(=O)C3)cc1 | inconclusive: 39.8 µM [inhibitor, single point] | –
61 | CCOC(=O)N1CCC(=NNc2ccnc3cc(Cl)ccc23)CC1 | inactive | –
62 | CCc1cc(C(=O)NNC(=S)NC2CCCCC2)cs1 | inconclusive: 31.6 µM [inhibitor, single point] | –
63 | CCc1cc2cccc(C)c2nc1SCC(=O)c1ccc(NC(C)=O)cc1 | inconclusive: 4.47 µM [inhibitor, single point] | –
64 | C=CCn1c(SCC(=O)Nc2ccc3c(c2)CCC3)nc2ccccc2c1=O | inconclusive: 2.51 µM [inhibitor, full curve, poor fit] | –
65 | CCCCN(C)CCn1c(=S)[nH]c2cc(OCC)c(OCC)cc2c1=O | inconclusive: 28.2 µM [inhibitor, single point] | –
66 | CCOc1ccc(C(=O)COC(=O)CC)cc1 | inconclusive: 6.31 µM [inhibitor, single point] | –
67 | COC(=O)c1ccc(C(NC(=O)OCc2ccccc2)/C(C)=C/[C@@H](C)C(=O)NCc2ccc(-c3ccccc3)cc2)cc1 (stereo partly specified) | inconclusive: 1.26 µM [inhibitor, full curve, poor fit] | –
68 | Cc1nc2ccccc2c(=O)n1CCCn1ccnc1 | inconclusive: 1.12 µM [inhibitor, partial curve, poor fit] | –
69 | COc1ccc(NS(=O)(=O)c2ccc3nc(COc4ccc(C#N)cc4)[nH]c3c2)cc1 | inactive | –
70 | C=CCN1CC(O)=C(c2nc3ccccc3[nH]2)C1=N | inactive | –
71 | COc1ccc2[nH]c(C)c(CCN3C(=O)OC(C)(C)C3(C)O)c2c1 (stereo unspecified) | inconclusive: 0.501 µM [inhibitor, full curve, poor fit] | –
